Sequences with one replicate were seen in a single cluster, so their values are uncertain.
System: ATP
Assay: switch fluorescence ratio, 500 uM ATP over buffer (Cy3 cluster intensity, sum of 5 cycles each) (fold (ratio)); higher = stronger signal-on switching upon ATP binding; sequences stand for … in TCGTCGGCAGCGTCAGATGTGTATAAGAGACAGTTTTTTTTTTTTTTTTTTTTTTTTT…TC
Details: aptamer strand: ATP DNA aptamer (quencher-CACCTGGGGGAGTATTGCGGAGGAAGG + anchor), 100 nM annealed; ATP concentration: 500 uM; one replicate
How it was run: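 The quencher-labelled ATP aptamer, at 100 nM, was annealed to Cy3-labelled switching-strand clusters on a modified Illumina MiSeq flow-cell. The clusters were imaged in selection buffer, then after 15 min with 500 uM ATP at 22 °C, and this buffer/ATP cycle ran five times with NaOH stripping and re-annealing between runs. Per-cluster fluorescence ratios, summed target-cycle over summed buffer-cycle Cy3 intensity, were averaged per switch-domain sequence. Clusters outside 100-1000 RFU were excluded.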
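Further: ATP exposure 15 min at 22 °C before imaging.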

Row | Sequence | switch fluorescence ratio
1 | AGATTGAAAC | 1.03
2 | TGAGGCCCCC | 1.31
3 | CCTGTTACTG | 1.05
4 | AATGTATCGC | 1.01
5 | ATCGTGGCTT | 0.992
6 | CGTGTCGGTC | 0.997
7 | CGGACCTACG | 1.18
8 | TACTTCAAAA | 1.04
9 | GGATGAAAAC | 0.976
10 | AGTTTAATAA | 1.05
11 | ACACCCATGA | 1.2
12 | CGAAAAAATG | 1
13 | GAAATCTCCG | 1.17
14 | CTCATAGCG | 0.98
15 | AGACTTTAGA | 1.06
16 | TATTTTTGTA | 1.03
17 | GGCCCTAGCA | 1.01
18 | AACATGTTCG | 0.916
19 | AGGTCAAGCA | 1.02
20 | CTGGGCATGA | 1.05
21 | AAGCAGATTA | 1.02
22 | CGTCCGTCCT | 0.985
23 | TCCCAGACTG | 1.04
24 | CACGTCATTA | 1.21
25 | GACTACTGTG | 1.05
26 | CAGAAGCCCG | 0.998

Row | Sequence | switch fluorescence ratio
27 | CCTGTGTTGC | 1.26
28 | TCGAGTCGAT | 0.996
29 | CGATCCGGTC | 1
30 | TTTATTATCG | 0.946
31 | CATCCATGAC | 1.2
32 | CCACAGTTAA | 1.12
33 | GTTGTTCGAC | 1.02
34 | GAGTAAGGCG | 0.945
35 | TGGTCCGCGT | 1.22
36 | CAGGCAGTAG | 1.11
37 | AACTACTAAG | 1.02
38 | TTCAATGGTC | 1.13
39 | CTATTGTGGT | 0.959
40 | TTCATCTTGG | 0.999
41 | GGAGAGAGTA | 1.01
42 | TACAGTGGCG | 0.988
43 | GCTCTCATGC | 1.07
44 | TTTGCCTCC | 1.26
45 | ACAGCGCATG | 1.02
46 | TCGTCAAAGC | 1.14
47 | AGTCGCGCCG | 1
48 | TTGACATTTA | 1.08
49 | TTTCCTGGAA | 1.03
50 | GGGTGGATCT | 0.97
51 | ATCAAATGTT | 0.987
52 | TGTCCCAGCT | 1.02

Row | Sequence | switch fluorescence ratio
53 | TAGAGAAAG | 0.998
54 | AGGGTTCCTC | 1.09
55 | ATCCTTTACG | 1.05
56 | ACGAGTTTGC | 0.985
57 | CGTTTTATC | 0.979
58 | GGTGGAGCCA | 0.999
59 | GTCCGCGCTG | 1.06
60 | CAACTATGGA | 0.982
61 | CCATGGATCG | 0.983
62 | ATCGTATGAA | 1.01
63 | TCTTAAGAAT | 0.928
64 | CAGAGTACAT | 1.02
65 | ATTTAAGAGC | 0.975
66 | AGGGCATCTG | 1
67 | GTTCCATTGT | 1.02
68 | GAGCCCGTAT | 1.12
69 | ATGTTCGCAG | 1
70 | GGGAGTGTAT | 0.981
71 | CCATGATTTT | 1.03
72 | AGTGTAGTGC | 1.04
73 | CTTTGACTGA | 0.989
74 | GACGGAGGGA | 1.22
75 | GTACCCGGTG | 1.78
76 | TTACAGGCG | 1.03
77 | TGCGGTTGTG | 0.955
78 | ATATGAGGG | 1

Row | Sequence | switch fluorescence ratio
79 | TGGTTGAGGA | 0.993
80 | CCTAGGGCTT | 1.05
81 | TATCAGAGTG | 1.01
82 | CACGCGCCTG | 1.08
83 | CACGAGTAGT | 1.02
84 | TGCCTAAAAA | 0.915
85 | AAGTGGGTGC | 1.02
86 | TAGTACATAT | 1
87 | GCCTTCGGCC | 0.996
88 | TCTGACGGAG | 1.06
89 | CAGTTGTAG | 1.05
90 | AGTAGTTAAC | 0.977
91 | GCAACACGGG | 1.1
92 | ATTTCGTTAT | 1.06
93 | AGCCCTTTTA | 0.992
94 | GGGAGCCTGT | 1
95 | CCTCTTAGAG | 1.09
96 | AGAAGCACGC | 1.17
97 | CACGTTGCGG | 0.993
98 | AACCTCTACG | 1.45
99 | TGCGGTAACT | 0.955
100 | GCGCGGGCCA | 0.967
101 | TAACACGAGG | 1.07
102 | CGTTTCAA | 1.02
103 | TTACGCAAAA | 1.17
104 | ACGCGCAGTA | 1.07

Row | Sequence | switch fluorescence ratio
105 | TCTCCGTCAG | 4.84
106 | AGTCGTAAAA | 0.991
107 | GAGGGAACAC | 1
108 | AAACACTTGT | 1.02
109 | CTTCCCTAGT | 1.16
110 | CATGTGAAAT | 1.03
111 | CCGGGTACGC | 1.33
112 | CACATATCCC | 1.04
113 | AAACCAGAGT | 0.996
114 | TTAGAATTA | 1.03
115 | AAGCAGTGTC | 0.931
116 | AGGAGGGGCA | 1
117 | ACATTTTCAT | 1.03
118 | GGAAAGCAAC | 1.18
119 | ATGTCATTCG | 1.03
120 | ACCTGCGGCA | 1.09
121 | GGTGCTAGCA | 1.08
122 | CGAAGCAACG | 2.11
123 | CGTGTGATGG | 0.991
124 | TGAGTTACA | 1.05
125 | TACAGTGGGC | 0.927
126 | AATGCGAGAT | 1.01
127 | TTGTTTACAT | 0.959
128 | AAGGAGATT | 0.97
129 | GCAGCCGGCA | 1.01
130 | CTGCTTAACG | 1.03

Row | Sequence | switch fluorescence ratio
131 | CCGTCGGACG | 1.02
132 | TTAGTAGGAA | 1.02
133 | AGGATAGGTC | 0.955
134 | CGCGGCAACG | 0.994
135 | AAGGCAGTGG | 1.01
136 | AGGTTGGGGA | 1.01
137 | GTGTGTACTC | 1.01
138 | CTGTTGCTCA | 0.969
139 | TGGGGACATG | 1.01
140 | AAACGGCGCA | 0.963
141 | GCCAAGCCCG | 0.972
142 | AAAATACT | 1.43
143 | AGGGGCGAGG | 0.983
144 | GACCACATCG | 1
145 | GGCTTCAGTC | 0.959
146 | CTTCGATAAG | 1.02
147 | GGTCGGCCCG | 0.941
148 | AAGCTCCCGG | 1.02
149 | CGGATGAAT | 0.994
150 | GGTTGTGGG | 0.983
151 | CAGACTAGAT | 1.03
152 | CGCTTTAAGC | 1.01
153 | TACTGCAGGG | 1
154 | GTATTGATAA | 0.934
155 | TATCAGTGGG | 1.01
156 | GCGGAAAATG | 0.973

Row | Sequence | switch fluorescence ratio
157 | GCCGGCATGT | 1.01
158 | AGATAACGCT | 0.996
159 | AAGGGATACC | 1.01
160 | ACCTCAGGGC | 1.13
161 | ATAGACATAT | 0.948
162 | AGGTGAATAT | 1.03
163 | ATCTTATTCC | 1.09
164 | AGAAAGGGG | 1.04
165 | CGGCCCGCGC | 1.24
166 | GGCTTCACGG | 1.01
167 | CGACTGCGGT | 1.23
168 | ATGGGCAATG | 1.07
169 | TAAACGCCCC | 1.26
170 | CAGTTTTGAA | 0.998
171 | TACATCATAA | 1.02
172 | AATTAATTGA | 0.97
173 | TTGCTTCTGG | 0.943
174 | ACATGCGTCC | 1.09
175 | TTTTGTAAC | 0.994
176 | AAAACGAGCG | 1
177 | GGTGCCCTTG | 0.979
178 | GCGAGTAATG | 1.04
179 | AAGCACAACT | 1.15
180 | GGCTTTGCCT | 0.989
181 | CCCTTGGCGG | 1.02
182 | CAGACTATCC | 1.06

Row | Sequence | switch fluorescence ratio
183 | TGACCCGTTA | 1.01
184 | CCATCATGTT | 0.984
185 | GAATGATACG | 0.964
186 | CCACTTGTCG | 1.08
187 | CATACTTTGC | 0.973
188 | CTTTAGGGAT | 1
189 | TCTCAGCCGT | 0.969
190 | AAGCTAGTA | 1.03
191 | TGACTGAGCT | 1.04
192 | GTGGAAAG | 0.972
193 | GGGACGAAAA | 1.16
194 | TACGGCCGTG | 1.01
195 | GCTCTGGAAG | 1.07
196 | GTCCCTCATA | 0.966
197 | TACGCGGGCC | 1.02
198 | CATAGGCTGT | 1.03
199 | TCAGCAACCC | 2.23
200 | ATGTGATCCG | 1.05
201 | CCGTGTTGGG | 1.03

Reference: the supplement of paper PMC10126150
